Reference: the supplement of paper PMC10126150
Values marked as one replicate rest on one cluster of the flow cell; about a third of the high ones do not repeat.

system: ATP; experiment: switch fluorescence ratio, 500 uM ATP over buffer (Cy3 cluster intensity, sum of 5 cycles each) (fold (ratio)); higher = stronger signal-on switching upon ATP binding; sequences stand for … in TCGTCGGCAGCGTCAGATGTGTATAAGAGACAGTTTTTTTTTTTTTTTTTTTTTTTTT…TC; details: aptamer strand: ATP DNA aptamer (quencher-CACCTGGGGGAGTATTGCGGAGGAAGG + anchor), 100 nM annealed; ATP concentration: 500 uM; one replicate
In short: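 The quencher-labelled ATP aptamer, at 100 nM, was annealed to Cy3-labelled switching-strand clusters on a modified Illumina MiSeq flow-cell. The clusters were imaged in selection buffer, then after 15 min with 500 uM ATP at 22 °C, and this buffer/ATP cycle ran five times with NaOH stripping and re-annealing between runs. Per-cluster fluorescence ratios, summed target-cycle over summed buffer-cycle Cy3 intensity, were averaged per switch-domain sequence. Clusters outside 100-1000 RFU were excluded.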
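Further: ATP exposure 15 min at 22 °C before imaging.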

Sequence	switch fluorescence ratio
ATTGGTTTGA	0.968
ATTGTAAATG	1.03
ATTGTACTCG	1
ATTGTAGGTA	0.971
ATTGTAGGTG	1.06
ATTGTGCGCA	0.994
ATTGTGGACG	0.951
ATTGTGGTAT	0.961
ATTGTGTAGC	1.19
ATTGTGTTA	0.979
ATTGTTAGGC	0.997
ATTGTTGCTT	0.956
ATTGTTTGAA	0.996
ATTTAAGCAA	1.77
ATTTAATCAG	1.03
ATTTAATGAC	0.994
ATTTAATGGC	1.09
ATTTACTCTA	1.03
ATTTAGAACT	0.965
ATTTAGATAA	1.04
ATTTATTCAC	0.998
ATTTCCACG	0.978
ATTTCGGAAC	1.01
ATTTCGTACA	0.993
ATTTCTAAGG	1.02
ATTTCTATGC	1.04

Sequence	switch fluorescence ratio
ATTTCTGGCA	1.02
ATTTCTTTAC	1.01
ATTTGAAAAG	1.04
ATTTGCCACA	1.03
ATTTGGTTCT	0.951
ATTTGTACGT	1.12
ATTTGTATGG	0.997
ATTTGTCTTT	0.987
ATTTGTGCGG	0.977
ATTTTATCT	1.02
ATTTTCATCT	0.963
ATTTTCGATA	1.03
ATTTTCTCCT	1.03
ATTTTGACGG	1.04
ATTTTGCATG	1.05
ATTTTGTAGC	1.57
ATTTTGTGC	0.984
ATTTTGTGTC	0.967
ATTTTTCACC	1.05
CAAAAAAATC	0.987
CAAAAAACTA	1.08
CAAAAACTTT	1.08
CAAAAAGCTA	1.03
CAAAACAAGA	0.945
CAAAACGTCC	1.45
CAAAAGGAGA	0.994

Sequence	switch fluorescence ratio
CAAAAGGATC	1.06
CAAAAGGGCT	0.996
CAAAAGGTAA	0.966
CAAAAGGTGA	1.04
CAAAATACCT	1.43
CAAAATGGCA	1.02
CAAACAAGTA	1.06
CAAACACGAA	1.02
CAAACATAAC	1.14
CAAACATTGA	1.01
CAAACATTGG	1
CAAACCCCCC	1.22
CAAACCCTAA	1.05
CAAACGGGGC	1.07
CAAACTATGC	1.07
CAAAGAACCT	1.66
CAAAGCAGGG	1.1
CAAAGCGC	0.976
CAAAGCTAAT	1.06
CAAAGGGGTA	1.02
CAAAGTGTA	1.15
CAAATAACTC	1.03
CAAATAGATC	0.968
CAAATAGCGC	0.977
CAAATCGTCT	1.03
CAAATCTACC	1.18

Sequence	switch fluorescence ratio
CAAATCTTAG	1.01
CAAATGAAAA	1.06
CAAATGACCG	1.07
CAAATGGACC	1.04
CAAATGTATA	1.05
CAAATTGATC	0.991
CAACAAAGGC	1.01
CAACAATGCC	1.02
CAACACGATG	1.03
CAACACTGTT	0.962
CAACAGCCTG	1.07
CAACAGCGAG	1.04
CAACAGGACT	1.09
CAACAGGATT	1
CAACAGTTGG	1
CAACCAACTA	1.03
CAACCATAG	1.08
CAACCCTGG	1.02
CAACCGGTAA	1.13
CAACCGTCG	1.07
CAACCTCACA	1.15
CAACCTGCT	0.988
CAACCTTAAT	1.02
CAACGCCCGA	1.17
CAACGGCCTG	1.01
CAACGGGTAC	1.54

Sequence	switch fluorescence ratio
CAACGTCCTT	1.01
CAACTAATTC	0.975
CAACTTAGTA	1
CAAGAATTGT	1.03
CAAGCCTAGG	1.05
CAAGCGCCCG	0.983
CAAGCTCATT	1.01
CAAGCTTTTA	1.02
CAAGGAGTG	0.992
CAAGGATATC	0.997
CAAGGCAGCA	1.01
CAAGGCCAGC	1.01
CAAGGCGAAC	1.13
CAAGGCTCCA	1.1
CAAGGGTAGC	0.973
CAAGGTATTC	0.978
CAAGTAACAC	1.09
CAAGTCGGGC	1.01
CAAGTGAGCC	1.02
CAAGTGGTTT	1.04
CAATACAGTT	1.03
CAATACTCTT	2.39
CAATAGGGCC	1.01
CAATATGAGC	0.988
CAATATGTG	0.994
CAATCAATTT	1

Sequence	switch fluorescence ratio
CAATCAGTTA	1.02
CAATCATCTC	0.976
CAATCATCTG	0.993
CAATCATTGG	0.962
CAATCCGTTA	1.15
CAATCCTGGT	0.974
CAATCGAAAG	1.03
CAATCGCCT	1.07
CAATCTCCTC	1.21
CAATCTTAAA	0.981
CAATCTTGCT	1.01
CAATGAATCT	1.01
CAATGACAAG	0.987
CAATGCGTCT	0.93
CAATGGACGG	1.02
CAATGGAGAT	1.03
CAATGGGCCG	1.04
CAATGGTCGC	0.978
CAATGTTACG	0.996
CAATTATGTT	0.968
CAATTCAGTC	0.967
CAATTGAGAA	0.971
CAATTGTAAG	1.09
